From publication PMC4336329 (PLoS ONE, 2015)
Out of some 310,000 compounds screened, about 14,000 (4.5%) showed an effect of 50% or more. The effect is printed as a negative number. Some of the results follow.

Target: human ether-à-go-go-related gene (hERG) potassium channel (human, UniProt Q12809)
Assay: primary screen, population patch clamp on CHO cells stably expressing hERG
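Also: peak tail current of the secondary pulse compared with the same well before compound.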

human ether-à-go-go-related gene (hERG) potassium channel, sequence (Q12809 whole entry, looked up): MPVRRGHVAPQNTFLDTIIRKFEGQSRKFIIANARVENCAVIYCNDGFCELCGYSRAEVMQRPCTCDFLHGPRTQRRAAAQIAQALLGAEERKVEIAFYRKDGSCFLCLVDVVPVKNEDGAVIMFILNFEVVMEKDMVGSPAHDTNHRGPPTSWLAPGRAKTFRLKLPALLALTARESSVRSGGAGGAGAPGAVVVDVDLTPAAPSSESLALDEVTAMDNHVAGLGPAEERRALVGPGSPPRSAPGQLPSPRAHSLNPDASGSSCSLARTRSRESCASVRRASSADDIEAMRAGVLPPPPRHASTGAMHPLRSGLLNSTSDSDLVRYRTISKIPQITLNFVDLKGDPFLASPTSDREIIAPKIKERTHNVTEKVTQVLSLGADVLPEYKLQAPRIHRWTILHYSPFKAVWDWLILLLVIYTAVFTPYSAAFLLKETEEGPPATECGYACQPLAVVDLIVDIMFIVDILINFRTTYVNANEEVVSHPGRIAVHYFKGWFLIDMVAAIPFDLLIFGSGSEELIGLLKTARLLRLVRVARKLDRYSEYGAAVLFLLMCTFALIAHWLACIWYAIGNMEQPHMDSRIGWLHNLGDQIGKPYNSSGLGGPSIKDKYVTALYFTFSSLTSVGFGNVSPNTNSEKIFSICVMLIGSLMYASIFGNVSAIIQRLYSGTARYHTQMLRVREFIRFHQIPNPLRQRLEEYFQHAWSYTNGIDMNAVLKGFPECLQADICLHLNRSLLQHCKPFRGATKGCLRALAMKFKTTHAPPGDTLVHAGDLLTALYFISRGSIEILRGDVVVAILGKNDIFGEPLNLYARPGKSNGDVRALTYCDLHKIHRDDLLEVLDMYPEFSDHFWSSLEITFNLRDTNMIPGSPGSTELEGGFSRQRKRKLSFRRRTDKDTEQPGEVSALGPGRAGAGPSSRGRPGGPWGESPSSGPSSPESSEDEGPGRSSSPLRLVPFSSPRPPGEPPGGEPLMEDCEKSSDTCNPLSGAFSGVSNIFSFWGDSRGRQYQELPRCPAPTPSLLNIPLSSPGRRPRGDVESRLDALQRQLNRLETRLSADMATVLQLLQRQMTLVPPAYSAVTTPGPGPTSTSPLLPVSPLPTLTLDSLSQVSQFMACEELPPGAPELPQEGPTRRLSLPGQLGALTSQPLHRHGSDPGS

Structure (SMILES)	hERG current change (%, negative = inhibition) at 10uM
CC(C)Cc1n[nH]c(=O)[nH]1	-6.31%
CCN1C(=O)c2cccc3c(Cl)ccc(c23)C1=O	14%
CCOc1ccc(OCc2ccc(C(=O)N3CCCC(C)C3)cc2)cc1 (stereo not drawn)	-27%
O=C(c1c(F)cccc1F)N1CCN(c2cccc(C(F)(F)F)c2)CC1	-5.7%
COc1ccc(C2/C(=C(\O)c3ccc4c(c3)OCCO4)C(=O)C(=O)N2Cc2cccnc2)cc1OC (stereo not drawn)	20.7%
COc1cccc(OCCOCCOc2ccc(C)cc2[N+](=O)[O-])c1	-14.5%
CCOCCCNC(=O)C1CC(=O)N(CCc2ccccc2)C1 (stereo not drawn)	9.05%
CCn1nc([N+](=O)[O-])c2c(-c3nc4ccccc4o3)c(N)n(CCCOC)c2c1=O	14.5%
COCCOC(=O)C1=C(C)NC(=O)NC1c1cc2c(cc1Br)OCO2 (stereo not drawn)	15.4%
COc1ccccc1Nc1nc(N)nc(CN2CCc3ccccc3C2)n1	-44.8%
COC(=O)c1scc(C)c1N/N=C(\C)c1ccc(F)cc1	-16.2%
COc1cc(CNC(C)c2ccccc2)cc(Br)c1OCc1ccc(F)cc1 (stereo not drawn)	15.6%
COCCNC(=O)c1onc(CSc2cc(C)ccc2C)c1C(=O)O	-2.53%
O=C(/C=C\c1ccc2c(c1)OCO2)NC1(C(=O)Nc2ccc3c(c2)OCCO3)CCCCC1	6.02%
COc1cc2ccccc2cc1C(=O)N1CCCC(C(F)(F)F)C1 (stereo not drawn)	-14.3%
COc1cccc(NC(=S)NNC(=O)Cn2nc(C(F)(F)F)cc2C)c1	18.2%
COc1ccc(C(=O)NCCNc2ccc([N+](=O)[O-])cc2)cc1	-40.9%
CN1C(=O)C(CC(=O)NCCc2ccccc2)N(NC(=O)c2cccc(F)c2)C1=S (stereo not drawn)	11.3%
COc1cc(NS(=O)(=O)c2ccc3c(c2)NC(=O)CO3)cc(OC)c1	-0.551%
Cc1ccc(C(=O)N2CCCC(Nc3ccc(C)c(C)c3)C2)c(=O)[nH]1 (stereo not drawn)	-50.3%
COC(C(=O)Nc1ccc(NC(=O)C(OC)c2ccccc2)cc1)c1ccccc1 (stereo not drawn)	13.7%
CC(C)CCNC(=O)CN(Cc1cccs1)C(=O)CCC(=O)Nc1nccs1	-10.6%

Structure (SMILES)	hERG current change (%, negative = inhibition) at 10uM
COCCCn1c(=O)/c(=C\c2cccc(OC)c2OC)s/c1=C(/C#N)C(=O)Nc1ccc(C(=O)O)cc1	9.33%
COC(=O)c1ccc(SCC(=O)NC2CCCC2)c([N+](=O)[O-])c1	-1.54%
CCOc1cccc(/C=N/Nc2nc(N3CCCC3)nc(N3CCCC3)n2)c1O	8.34%
OC1/C(=C/c2ccccc2C(F)(F)F)N2CCC1CC2 (stereo not drawn)	9.66%
Cc1c(N2C(=O)c3ccccc3C2=O)c(=O)n(-c2ccccc2)n1C	2.8%
O=C(NC(CO)(CO)CO)c1coc(=O)c(Br)c1	3.37%
COc1ccc(C(=O)NC2=Nc3ccccc3N=C(C)C2c2ccccc2)cc1 (stereo not drawn)	1.66%
COc1ccccc1Nc1nccc(N(C)C)c1C#N	24.5%
O=c1[nH]c(-[n+]2ccc3ccccc3c2)c(/C=N/N=C(\[O-])c2ccccc2)s1	9.89%
Cn1c(-c2ccccc2)nc2cnccc21	-0.408%
Cc1cc(OC(=O)c2ccc(F)cc2)c([N+](=O)[O-])c(=O)[nH]1	15.6%
O=C(N/N=C/c1ccco1)c1ccccn1	-5.91%
Cc1cc(NC(=O)COC(=O)c2c(C)nn(Cc3ccccc3)c2C)no1	1.23%
Cc1ccc(S(=O)(=O)N2CCC(=O)N(C(COCc3cccc(C(F)(F)F)c3)Cc3ccccc3)CC2)cc1 (stereo not drawn)	-1.78%
CCCCn1nc2cc(C(=O)NCC34CC5CC(CC(C5)C3)C4)ccc2c1OC	-6.83%
COc1ccc(F)cc1C(=O)C1CCCN(Cc2c[nH]c3ccccc23)C1 (stereo not drawn)	-63.8%
O=C(NCc1ccc(F)cc1)c1cccc(S(=O)(=O)N2CCCC2)c1	-35.8%
O=C(O)CC(CC(=O)Nc1ccc(Oc2ccccc2)cc1)c1ccccc1 (stereo not drawn)	11.7%
O=C(O)c1ccccc1C(=O)NNc1ccc(F)cc1F	-0.769%
CCOC(=O)CN(C(=O)CSc1nnc(-c2cccc(OC)c2)o1)c1ccc(F)cc1	-46.8%
CC1CCN(C2(O)C(=O)Nc3ccc(Br)cc32)CC1 (stereo not drawn)	19.4%
COc1ccc(C2=NN(CN3C(=O)C(=O)c4ccccc43)C(c3ccc(OC)cc3)C2)cc1 (stereo not drawn)	9.84%

Structure (SMILES)	hERG current change (%, negative = inhibition) at 10uM
CCOC(=O)c1ccccc1NC(=O)N[C@@H](C)C(=O)OC	1.39%
COc1ccc(N2CCN(C(=O)c3cccc(N4C(=O)C5C6C=CC(C6)C5C4=O)c3)CC2)cc1 (stereo not drawn)	-17.6%
COc1cccc(C(=O)/C=C/Nc2ccc(S(=O)(=O)Nc3cnc4ccccc4n3)cc2)c1	-11.1%
O=C1CC2C(CC(OC(=O)c3ccc(-c4ccccc4)cc3)C2CO)O1 (stereo not drawn)	-8.02%
O=C(Nc1ccc2c(c1)OCO2)C1CC(=O)N(c2ccc(F)cc2)C1 (stereo not drawn)	11.7%
COc1ccccc1N1CCN(C2CC(=O)N(c3ccc(Cl)cc3)C2=O)CC1 (stereo not drawn)	12.3%
Cc1ccc(OCc2cc(C(=O)N3CCN(C4CCCC4)CC3)no2)cc1C	-18.4%
COc1ccc(NC(=O)CSc2nc(=O)n(CCN3CCOCC3)c3c2CCC3)cc1	0.105%
COc1ccc(S(=O)(=O)N2CCCCCC2)cc1C(=O)N(C)CC(=O)Nc1ccccc1Cl	-19.7%
C#CCOCCOCCOCCNc1nc(N2CCN(C(=O)Cn3cc(CCO)nn3)CC2)nc(N2CCN(C(=O)[C@H]([C@@H](C)O)n3cc(CCCC[NH3+])nn3)CC2)n1.[Cl-]	12.3%
Cc1cccc(C(=O)NCc2ccco2)c1	16.6%
COc1ccc(OC)c(NC(=O)CSc2nnc(Cn3c(=O)sc4ccccc43)n2C)c1	-48.6%
COc1cc(CNCc2ccccn2)ccc1OCc1ccccc1Cl.Cl	-58.3%
CCCCCCn1c(SCC(=O)c2ccccc2)nc2c1c(=O)[nH]c(=O)n2C	-26%
COc1cccc(CC(=O)NCC2(N3CCCCC3)CCCCC2)c1	25%
NC(=O)C1CCN(C2CC(=O)N(c3cccc(F)c3)C2=O)CC1 (stereo not drawn)	-1.68%
COc1ccc(CCNC2CC(=O)N(C3CCCCC3)C2=O)cc1OC (stereo not drawn)	-7.18%
COc1ccc(-c2onc(C)c2-c2cnn(-c3ccccc3)c2)c(O)c1	3.71%
CCOc1ccc(C(CC(=O)O)NC(=O)c2cccs2)cc1 (stereo not drawn)	-8.2%
O=C(CN1C(=O)CSc2ccc(S(=O)(=O)N3CCCCC3)cc21)NCc1ccccc1	-38%
CCOc1cc2[nH]c(=S)n(CCOC)c(=O)c2cc1OCC	6.27%
O=C(COC(=O)CCSc1ccccc1)NCc1ccccc1Cl	22.4%

Structure (SMILES)	hERG current change (%, negative = inhibition) at 10uM
COc1ccc(-n2c(C)c(C(C)=O)c(C(C)=O)c2C)cc1OC	23.3%
N#Cc1ccc(OCCN2C(=O)NC3(CCSC3)C2=O)cc1 (stereo not drawn)	-57.2%
CC(C)N1CCN(c2ccc(S(=O)(=O)N3CCOCC3)cn2)CC1	8.48%
CC(=O)c1c(NCc2ccccc2)nc(=O)n(-c2ccccc2)c1C	-0.97%
COc1cc(C=Nc2cccc(C)c2)c(O)c([N+](=O)[O-])c1	3.12%
COc1ccc(OC)c(CN2CCN(C(=O)[C@@H](NC(=O)c3cccc(C)c3)C(C)C)CC2)c1	-25.4%
CC1CCCCC1NC(=O)CCS(=O)(=O)c1ccc2c(c1)NC(=O)CO2 (stereo not drawn)	12.5%
Cc1ccc(CN(C)C2CCN(C)CC2)cc1	16.8%
CNc1ccccc1C(=O)OCC(=O)N1CCN(c2ccc(OC)cc2)CC1	2%
Nc1cccc(-n2nnnc2CN2CCOCC2)c1	12.8%
CC(C)c1nc(CNC(=O)CC2C(=O)NCCN2Cc2ccc(F)cc2Cl)cs1 (stereo not drawn)	4.2%
COc1ccc(/C=N/NC(=O)c2ccc3nc[nH]c3c2)cc1OC	20.7%
CC(C)c1cccc(OCC(=O)Nc2ccc(S(=O)(=O)Nc3ccccn3)cc2)c1	30.8%
Cc1nc(CNS(=O)(=O)c2cccs2)cs1	-3.02%
Cc1cc(=O)[nH]c(SCc2nc3ccccc3s2)n1	7.29%
COc1ccc(NC(=S)NCCc2c[nH]c3ccccc23)cc1	-7.49%
COc1ccc(CN2CCN(Cc3cc4ccccc4o3)CC2CCO)cc1C (stereo not drawn)	-40.4%
CC(C)c1ccc(NC(=O)CSc2nc(=O)n(CCN3CCOCC3)c3c2CCC3)cc1	-41.5%
CCC(=O)N(Cc1cc2cc(OC)ccc2[nH]c1=O)c1ccc(C)cc1C	-10.4%
CC(NS(=O)(=O)c1ccc(Br)cc1)C(c1cccs1)N1CCOCC1 (stereo not drawn)	-28.5%
COC(=O)CSc1nnc(-c2ccc(S(=O)(=O)N3CCC(C)CC3)cc2)o1	8.36%
